Reference: the supplement of paper PMC9446081
Out of some 39,000 compounds screened, about 220 (0.56%) showed activity. The list shows a part of the results.
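Further: static incubation at 37 °C against the wild-type strain, values averaged over two biological replicates.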

These compounds were tested on Escherichia coli K-12 BW25113 (assay: relative growth (OD600 normalised to plate interquartile mean) (fraction); higher = less growth inhibition, active = 0.2 or less). Details: 50 µM; LB; incubation time: overnight (16-24 h).
`Nc1cc(=O)nc(C(F)(F)F)[nH]1` was tested, and the relative growth was inactive: 0.999. For `C[C@@H]1CNC[C@H](C)N1`, the relative growth was inactive: 0.99. In the case of `COC(=O)C1(C)CCCC2(C)c3ccc(O)c(C(C)C)c3CCC12` (stereo unspecified), the relative growth is reported as inactive: 0.951. `Cc1ccc(S(=O)(=O)N2C[C@H](O)COC[C@H]3O[C@@H](CC(=O)N[C@@H]4CCN(Cc5ccccc5)C4)CC[C@@H]32)cc1` was tested, and the relative growth was inactive: 0.997. With `COc1ccc(S(=O)(=O)N(C)C[C@@H]2Oc3c(NC(=O)C4CCOCC4)cccc3C(=O)N([C@H](C)CO)C[C@H]2C)cc1` the relative growth was inactive: 1.03. With `O=c1nc(Nc2ccccc2)[nH]c(=O)[nH]1` the relative growth was inactive: 0.961. In the case of `Cc1ccc(-c2ccc3c(c2)O[C@H](CN(C)C(=O)NC(C)C)[C@H](C)CN([C@@H](C)CO)S3(=O)=O)cc1`, the relative growth is reported as inactive: 1.01. In the case of `C[C@@H]1CN([C@@H](C)CO)C(=O)c2cc(NC(=O)CCN3CCOCC3)ccc2O[C@H]1CN(C)C(=O)NC1CCCCC1`, the relative growth is reported as inactive: 0.974. In the case of `Cn1cnc(S(=O)(=O)N2C[C@@H](O)COC[C@@H]3O[C@H](CC(=O)NC4Cc5ccccc5C4)CC[C@H]32)c1`, the relative growth is reported as inactive: 0.996. In the case of `Cc1ccc(S(=O)(=O)Nc2ccc3c(c2)C(=O)N([C@@H](C)CO)C[C@H](C)[C@@H](CN(C)Cc2ccc(Cl)c(Cl)c2)OCCCC[C@@H](C)O3)cc1`, the relative growth is reported as inactive: 0.964. `C[C@H](CO)N1C[C@H](C)[C@H](CN(C)Cc2ccc(Cl)c(Cl)c2)Oc2c(NC(=O)Nc3ccc(F)cc3)cccc2C1=O` was tested, and the relative growth was inactive: 1.02. In the case of `Cc1nsc(C(=O)NC[C@H]2CCCO2)n1`, the relative growth is reported as inactive: 1.02. `C[C@@H]1CN([C@H](C)CO)C(=O)c2c(c3ccccc3n2C)-c2ccccc2CO[C@@H]1CN(C)Cc1ccc(F)cc1` was tested, and the relative growth was inactive: 0.962. For `COc1ccc(S(=O)(=O)N(C)C[C@H]2Oc3ccc(NC(=O)Nc4c(C)noc4C)cc3C(=O)N([C@H](C)CO)C[C@@H]2C)cc1`, the relative growth was inactive: 0.984. `O=C(C[C@H]1CC[C@@H]2[C@H](COC[C@@H](O)CN2S(=O)(=O)c2ccc(Cl)cc2)O1)N[C@H]1CCN(Cc2ccccc2)C1` was tested, and the relative growth was inactive: 1. For `C[C@H]1CN([C@@H](C)CO)C(=O)CCCn2nncc2CO[C@@H]1CN(C)C(=O)Nc1cccc(C(F)(F)F)c1`, the relative growth was inactive: 0.979. For `O=C(C[C@@H]1C[C@@H]2c3cc(NC(=O)Cc4ccncc4)ccc3O[C@@H]2[C@H](CO)O1)NCc1cc(F)ccc1F`, the relative growth was inactive: 1.01. `O=C(CCCCCNC(=O)OCCCCO[C@@H]1C[C@H](c2ccc(Br)cc2)C=C(C(=O)N2CCN(Cc3ccccc3)CC2)O1)NO` was tested, and the relative growth was inactive: 1. `O=C(NO)c1cccc(C(=O)N/N=C/[C@H](O)[C@@H](O)[C@@H](O)[C@H](O)CO)c1` was tested, and the relative growth was inactive: 0.995. `Cc1ccc(S(=O)(=O)N[C@@H](Cc2ccccc2)C(=O)NCCn2cc(-c3ccccc3N)nn2)cc1` was tested, and the relative growth was inactive: 0.998. With `C[C@@H]1CN([C@H](C)CO)C(=O)c2cc(NC(=O)Nc3ccc(C(F)(F)F)cc3)ccc2O[C@@H](C)CCCCO[C@@H]1CN(C)C(=O)Cc1ccccc1` the relative growth was inactive: 0.997. In the case of `C[C@@H]1CN([C@H](C)CO)C(=O)Cc2cc(NS(=O)(=O)c3ccc(Cl)cc3)ccc2O[C@@H]1CN(C)Cc1ccc(C(=O)Nc2ccccc2N)cc1`, the relative growth is reported as inactive: 1.02. `C[C@H](CO)N1C[C@H](C)[C@H](CN(C)C(=O)Cc2ccccc2)OCCCC[C@H](C)Oc2ccc(NC(=O)Nc3ccc(F)cc3)cc2C1=O` was tested, and the relative growth was inactive: 1. In the case of `CC1(C)NC(=O)N(c2ccc([N+](=O)[O-])c(C(F)(F)F)c2)C1=O`, the relative growth is reported as inactive: 1.18. For `O=C(C[C@H]1CC[C@@H]2[C@H](COC[C@H](O)CN2S(=O)(=O)c2cccc(Cl)c2)O1)N1CCOCC1`, the relative growth was inactive: 1.05. With `C[C@H](CO)N1C[C@H](C)[C@H](CN(C)Cc2ccncc2)OCCCC[C@H](C)Oc2ccc(NC(=O)Nc3ccccc3)cc2C1=O` the relative growth was inactive: 0.97. For `CCCCCCc1ccc(O)cc1O`, the relative growth was inactive: 0.473. `C[C@H]1CN([C@@H](C)CO)C(=O)c2cc(NC(=O)c3ccncc3)ccc2O[C@@H]1CN(C)Cc1ccc2c(c1)OCO2` was tested, and the relative growth was inactive: 0.988. With `C[C@@H]1CN([C@H](C)CO)S(=O)(=O)c2ccc(C3=CCCC3)cc2O[C@@H]1CN(C)C(=O)Cc1ccncc1` the relative growth was inactive: 1. In the case of `COc1ccc(S(=O)(=O)Nc2ccc3c(c2)C(=O)N([C@@H](C)CO)C[C@H](C)[C@H](CN(C)Cc2ccc(C(=O)O)cc2)OCCCC[C@H](C)O3)cc1`, the relative growth is reported as inactive: 1. In the case of `O=C(C[C@@H]1C[C@@H]2c3cc(NS(=O)(=O)c4ccc(F)cc4)ccc3O[C@@H]2[C@H](CO)O1)N1CCCCC1`, the relative growth is reported as inactive: 1.02. In the case of `C[C@@H](N)c1ccc(F)cc1F`, the relative growth is reported as inactive: 1.04. In the case of `COc1ccc(NC(=O)N(C)C[C@@H]2Oc3ccc(NC(=O)Cn4cnnn4)cc3C(=O)N([C@H](C)CO)C[C@@H]2C)cc1`, the relative growth is reported as inactive: 0.996. With `OCCC1CCOCC1` the relative growth was inactive: 1.06. In the case of `CC(C)(C)[S@](=O)N1Cc2cc(C(=O)N3CCCCC3)nc(-c3cccc(C4=CCCC4)c3)c2[C@@H]1CCO`, the relative growth is reported as inactive: 1.03. In the case of `C[C@@H]1CCCCO[C@@H](CN(C)Cc2ccc(C(F)(F)F)cc2)[C@H](C)CN([C@H](C)CO)C(=O)c2cc(NC(=O)NC3CCCCC3)ccc2O1`, the relative growth is reported as inactive: 0.967. In the case of `O=C(CN1CCOCC1)NCC[C@H]1CC[C@H](NC(=O)c2ccccc2F)[C@H](CO)O1`, the relative growth is reported as inactive: 0.985. `CC(C)N1C[C@@H](CNCc2ccc(Oc3ccccc3)cc2)Oc2c(NC(=O)c3ccncc3)cccc2C1=O` was tested, and the relative growth was inactive: 1.01. For `C[C@@H]1CN([C@@H](C)CO)C(=O)CCCn2nncc2CO[C@@H]1CN(C)S(=O)(=O)c1ccc(-n2cccn2)cc1`, the relative growth was inactive: 0.987. With `C[C@@H]1CCCCO[C@@H](CN(C)C(=O)Nc2ccc3c(c2)OCO3)[C@H](C)CN([C@H](C)CO)C(=O)c2cc(NC(=O)Nc3ccccc3)ccc2O1` the relative growth was inactive: 0.993. `Cc1ccc(-c2cnc3c(c2)C(=O)N([C@H](C)CO)C[C@H](C)[C@H](CN(C)C(=O)Cc2ccncc2)O3)cc1` was tested, and the relative growth was inactive: 1.01.
